Here are results for 95 compounds from PubChem BioAssay AID493208 (National Center for Advancing Translational Sciences (NCATS), 2011).

Screen size: about 44,000 compounds; about 340 (0.77%) were called active. About 5% were inconclusive and are not listed. The call rests on the fitted dose curve; in most records, active means well fitted inhibition curve with a large enough effect; inconclusive means small, poorly fitted or top-dose-only effect; inactive means flat fitted curve, though single readings scatter. The list shows a part of the results.
Potency means the concentration at half of the fitted maximal effect.

This experiment is described as follows: Acumen qHTS Assay for Inhibitors of the mTORC1 Signaling Pathway in MEF (Tsc2-/-, p53-/-) Cells: Sytravon. Further: nearly all actives have a fitted effect of over 50% in size.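 On activity change, negative = inhibition: plate controls were DMSO for no effect and rapamycin for full effect.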 Particulars: phospho-rpS6 immunofluorescence/PI, 24 h; series mostly up to 38.3 µM; activity change, negative = inhibition: at the top concentration. In short, it runs like this:
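Cell-based qHTS: Tsc2-/- p53-/- MEF, 24 h cpd, 37 °C; fix/perm, anti-phospho-S6 Alexa-488 + PI; Acumen 488 nm scan; pS6/PI ratio, % positive cells; rapamycin 7.5 nM = inhibition ref; PI count = viability.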
A general note: qHTS replaces the single test concentration by a dilution series.
For the compound `C=C(C)Cn1c(SCC(=O)c2ccccc2)nc2sc3c(c2c1=O)CCCC3`, the “activity change, negative = inhibition” value is inactive: 1.94%.
Still for that read-out and setting: the result for `COc1cc(Cl)c(C)cc1NC(=O)Cn1c(C)c2cnn(-c3ccccc3)c(=O)c2c1C` reads inactive: 1.34%.
Still for that read-out and setting: the result for `CC(=O)c1ccc(NC(=O)CSc2nnc(N)s2)cc1` reads inactive: -0.506%.
As for `O=C(Nc1cccc(C(F)(F)F)c1)C1CCN(S(=O)(=O)c2cccs2)CC1`, the “activity change, negative = inhibition” value was inactive: -0.33%.
Still for that read-out and setting: to `CCn1cc2nc(SCc3cccc(C(F)(F)F)c3)n(Cc3ccc(OC)cc3)c(=O)c2n1` belongs inactive: 0%.
Take `COc1cc2c(cc1NC(=O)COc1ccc(Cl)cc1)oc1ccccc12`: the “activity change, negative = inhibition” value is inactive: -3.71%.
In the case of `COc1ccc(NC(=O)Cn2c(=O)n(Cc3ccco3)c(=O)c3oc4ccccc4c32)cc1Cl`, the “activity change, negative = inhibition” value is inactive: -6.61%.
On the same count and under the same terms, to `COc1ccc(-n2ncc3c2ncn2nc(Cc4ccccc4)nc32)cc1` belongs inactive: 3.02%; to `Cc1ccccc1CNCc1c(C(=O)O)c(C)n(Cc2ccc(F)cc2Cl)c1C`, inactive: 1.02%.
Still for that read-out and setting: the result for `CC(=O)Nc1ccc(C(=O)Nc2ccc3c(c2)N(C2CCCC2)C(=O)c2ccccc2S3)cc1` reads inactive: -7.42%; that for `Clc1ccccc1CN1CCc2nc(N3CCN(c4ncccn4)CC3)ncc2C1`, inactive: 0%.
Still for that read-out and setting: to `Cc1nnc(N2CCC(C(=O)NC(C)C)CC2)c2nn(-c3ccccc3)c(C)c12` belongs inactive: -7.01%; to `Cc1ccc(-c2noc(-c3nnn(-c4ccc(Br)cc4F)c3C)n2)cc1`, inactive: -8.02%; to `O=C(Nc1ccc(F)cc1)c1cc2cc3ccc(Cl)cc3nc2o1`, inactive: -10.8%.
For `COc1ccc(OC)c(CCNC(=O)Cn2nc(C)n3c(cc4sccc43)c2=O)c1`, the “activity change, negative = inhibition” value was inactive: 1.53%.
Same read-out and setting: to `COc1ccc(-n2ncc(C(=O)NCCN3CCOCC3)c2C2CCN(C(=O)OC(C)(C)C)CC2)cc1` belongs inactive: 0.561%; to `CCc1c(C)sc2c1CCN(C(=O)Nc1cc(C)ccc1C)C2c1ccc(OC)cc1` (stereo not given), inactive: 0%; to `Cc1nc(-c2cccc(S(=O)(=O)N3CCC(C(=O)NCc4ccccc4Cl)CC3)c2)no1`, inactive: -4.62%.
As to `Cc1cc(C)cc(NC(=O)c2cc(S(=O)(=O)N3CCCC3)ccc2F)c1`, the “activity change, negative = inhibition” value is inactive: 1.83%.
In the case of `Cn1nc(-c2ccccc2F)c2cc(C(=O)NCc3cccc(Cl)c3)sc21`, the “activity change, negative = inhibition” value is inactive: 2.45%.
Same read-out and setting: the result for `Cc1ccc(C)c(NC(=O)c2nnn(Cc3ccc(F)cc3Cl)c2N)c1` reads inactive: -29.4%; that for `Cc1cccc(CSc2nnc(CCCCCN)o2)c1`, inactive: -28.1%; that for `CCC1Oc2ccccc2N(CC(=O)NCCc2ccc(OC)c(OC)c2)C1=O` (stereo not given), inactive: -3.62%.
On the same count and under the same terms, to `O=C(NCCc1ccccc1)c1cnc2sc(N3CCCCC3)nn2c1=O` belongs inactive: -8.49%; to `O=c1oc2ccc3ccccc3c2cc1-c1nnc(Nc2cccc(C(F)(F)F)c2)s1`, inactive: 4.02%.
`COc1cc(OC)c(NC(=O)N2CCc3cc(S(=O)(=O)N4CCC(C)CC4)ccc32)cc1Cl`: the “activity change, negative = inhibition” value is inactive: -0.22%.
The same measure, in the same setting: to `O=C(c1cc2c(s1)-c1ccccc1OC2)N1CCN(c2ccc(F)cc2)CC1` belongs inactive: 1.58%; to `COc1ccc(CCNS(=O)(=O)c2ccc(N3CCCCS3(=O)=O)cc2)cc1`, inactive: 14.8%; to `c1ccc2c(c1)ncc1nncn12`, inactive: -0.132%.
Still for that read-out and setting: to `CC1CCC(NC(=O)Cn2ncc3c4ccccc4n(Cc4ccc(F)cc4)c3c2=O)CC1` (stereo not given) belongs inactive: 0.329%; to `O=c1[nH]c2ccc(NCc3ccc(-c4ccc(F)cc4)o3)cc2[nH]1`, inactive: -17.1%; to `CC(=O)c1ccc(NC(=O)CSc2ccc3nnc(CCNS(=O)(=O)c4ccc(C)cc4)n3n2)cc1`, inactive: 2.21%.
The same measure, in the same setting: the result for `Cc1ccc(Nc2ncc(C(=O)Nc3ccc(F)cc3F)c3ccccc23)cc1Cl` reads inactive: 3.59%; that for `Cc1ccc(CN(C(=O)COc2ccc([N+](=O)[O-])cc2)c2ccccn2)o1`, inactive: -2.85%.
`CCC1CCCCN1S(=O)(=O)c1cc2c(cc1C)NC(=O)CO2` (stereo not given): the “activity change, negative = inhibition” value was inactive: -5.31%.
On the same count and under the same terms, the result for `COc1ccc(CNC(=O)c2nn(C)c3c2CS(=O)(=O)c2ccccc2-3)cc1` reads inactive: 9.82%; that for `CC(=O)c1cccc(NC(=O)C2CCN(S(=O)(=O)c3ccccc3)CC2)c1`, inactive: -10.5%.
As for `COc1ccc(CCNC(=O)CCS(=O)(=O)c2cc3c(cc2Cl)NC(=O)CO3)cc1OC`, the “activity change, negative = inhibition” value was inactive: 10.2%.
The same measure, in the same setting: to `O=C(COc1ccccc1)Nc1nnc(SCc2cc(=O)n3cc(Cl)ccc3n2)s1` belongs inactive: 7.41%.
On the same count and under the same terms, to `CCc1nnc(SCC(=O)Nc2cccc(C(F)(F)F)c2)c2cc3oc(C)cc3n12` belongs inactive: -0.283%; to `COc1ccc(-c2noc(CSc3nnc(Cc4ccccc4)n3-c3cccc(C)c3)n2)cc1`, inactive: -29.8%.
Take `COc1ccc(/C=C/C(=O)Nc2ccc3nc4c(c(Nc5ccc(OC)c(OC)c5)c3c2)CCCC4)cc1`: the Potency was active: 3.69 µM.
Take `CCCc1nn2cc(-c3ccc(C)c(C)c3)nc2s1`: the “activity change, negative = inhibition” value is inactive: 0.841%.
On the same count and under the same terms, the result for `CCOC(=O)Cc1c(C)nc2c(-c3ccc(Cl)cc3)c(C(F)(F)F)nn2c1C` reads inactive: -3.32%.
Same read-out and setting: to `Cc1oc(-c2ccccc2Cl)nc1CS(=O)(=O)CC(=O)NC(C)c1ccccc1` (stereo not given) belongs inactive: -10.9%; to `CCC(C(=O)Nc1ccccc1OC)n1c(C(=O)OC)cc2sc(Cl)cc21` (stereo not given), inactive: -7.85%; to `Cc1ccc2onc(CNC(=O)NCc3ccccc3)c2c1`, inactive: 6.26%.
On the same count and under the same terms, to `CC(=O)N1CCc2cc(S(=O)(=O)NC(CC(C)C)C(=O)NCCc3cccc(C)c3)ccc21` (stereo not given) belongs inactive: -8.87%.
In the case of `CCOCCCNC(=O)c1ccc2c(=O)n(CCc3ccc(OC)c(OC)c3)c(=O)[nH]c2c1`, the “activity change, negative = inhibition” value is inactive: -0.407%.
Still for that read-out and setting: to `CCOc1ccccc1CNC(=O)CSc1nnc(C)c2c(C)n(-c3ccccc3)nc12` belongs inactive: -12.1%; to `CCCCOc1ccccc1C(=O)N(Cc1cccc(F)c1)C1CCS(=O)(=O)C1` (stereo not given), inactive: 4.42%.
Same read-out and setting: to `Cc1ccc(NC(=O)c2ccc(CNS(=O)(=O)c3ccc4c(c3)C(C)(C)C(=O)N4C)cc2)cc1F` belongs inactive: -22%; to `CCOc1ccc(CCNC(=O)CSc2nnnn2-c2ccc(C)cc2C)cc1OCC`, inactive: -1.41%.
Same read-out and setting: to `O=C(NCC(c1cccnc1)N1CCc2ccccc21)c1ccc(F)cc1` (stereo not given) belongs inactive: -8.28%; to `CCOc1ccc(NC(=O)N(C)CCc2c(C)nn(C)c2C)cc1`, inactive: 4.28%.
In the case of `CCOC(=O)C1=C(CN(C)Cc2ccccc2)NC(=O)NC1c1ccc(OC)cc1` (stereo not given), the “activity change, negative = inhibition” value is inactive: -1.1%.
The same measure, in the same setting: to `COc1cc(OC)c(NC(=O)C(Cc2ccccc2)NS(=O)(=O)c2cccc3nsnc23)cc1Cl` (stereo not given) belongs inactive: 2.44%; to `CN(C)c1ccc(NC(=O)CSc2nc3ccsc3c(=O)n2CCCCCC(=O)O)cc1`, inactive: 0.25%; to `Cc1c(C(=O)N(Cc2ccco2)Cc2ccccc2Cl)oc2ccc(F)cc12`, inactive: -18.4%.
On the same count and under the same terms, the result for `COc1ccc(OC(C)C(=O)NCc2nc(-c3cccc(C)c3)no2)cc1` (stereo not given) reads inactive: -7.05%.
Still for that read-out and setting: the result for `CC(C)CCNC(=O)CN1C(=O)c2cccnc2Sc2ccccc21` reads inactive: -18.6%; that for `CC(=O)c1cccc(NC(=O)Cc2noc3ccccc23)c1`, inactive: 11.4%; that for `COc1ccc(CC(=O)Nc2cc(-c3cn4cccnc4n3)ccc2OC)cc1`, inactive: -18.3%.
Turning to `CCCCC(=O)NC1(C(F)(F)F)C(=O)Nc2c1c(=O)[nH]c(=O)n2-c1ccc(C)c(C)c1` (stereo not given), the “activity change, negative = inhibition” value was inactive: 2.29%.
The same measure, in the same setting: the result for `O=C(Nc1ccc2nc(SCCOc3ccccc3Cl)sc2c1)c1ccc2c(c1)OCO2` reads inactive: -10.3%; that for `COc1cccc(NC(=O)CSC2=Nc3ccccc3C3=NC(CC(=O)NCc4ccc5c(c4)OCO5)C(=O)N23)c1` (stereo not given), inactive: 0.181%.
The same measure, in the same setting: to `CCCCNC(=O)c1cnc2sc(N3CCCCCC3)nn2c1=O` belongs inactive: -4.38%; to `COc1ccc(C)cc1NC(=O)Nc1ccccc1OCc1cc(=O)n2ccccc2n1`, inactive: -14.6%.
On to `Cc1cc(C)c(NC(=O)C(=O)NCC(c2cccnc2)N2CCN(Cc3ccccc3)CC2)c(C)c1` (stereo not given), for which the “activity change, negative = inhibition” value is inactive: -4.55%.
Still for that read-out and setting: to `Cc1ccccc1-c1noc(-c2ccc(N3CCN(C)CC3)c([N+](=O)[O-])c2)n1` belongs inactive: 2.93%; to `COc1ccc2c(c1)c1c(c(=O)n(-c3ccccc3)c(=O)n1CC(=O)NCc1ccc(C)cc1)n2C`, inactive: -5.05%.
Same read-out and setting: the result for `CSc1nn(Cc2cccc(Cl)c2)c(N(C(C)=O)C(C)=O)c1S(=O)(=O)c1ccccc1` reads inactive: 2.38%; that for `COc1ccc(CC(=O)N(Cc2nc(-c3ccc(C)cc3)no2)C(C)C)cc1`, inactive: -4.11%.
On the same count and under the same terms, the result for `COc1ccc(C2C(=O)N(C3CCC(C)CC3)CC(=O)N2C2CCCC2)cc1OC` (stereo not given) reads inactive: 4.98%.
`COc1ccc(-n2cc(C(=O)OCc3ccc(Cl)cc3)c3ccccc3c2=O)cc1`: the “activity change, negative = inhibition” value is inactive: -2.36%.
As to `CN(C)c1ccc(C(CNS(=O)(=O)c2ccc(F)cc2)N2CCOCC2)cc1` (stereo not given), the “activity change, negative = inhibition” value is inactive: 2.65%.
Same read-out and setting: the result for `Cc1c(C(=O)OC2CCCCCC2)[nH]c2c1C(=O)CC(c1ccc(N(C)C)cc1)C2` (stereo not given) reads inactive: -4.49%; that for `COc1cc(OC)cc(C(=O)Nc2cc(-c3nc4cccnc4s3)ccc2C)c1`, inactive: 5.2%.
On to `CCC(C(=O)Nc1ccc(C(=O)OC)cc1)n1nc(-c2ccc(C)c(C)c2)ccc1=O` (stereo not given), for which the “activity change, negative = inhibition” value was inactive: -11.2%.
Still for that read-out and setting: the result for `COc1ccc(NC(=O)C2CCN(S(=O)(=O)c3ccc4c(c3)CCCC(=O)N4)CC2)c(OC)c1` reads inactive: 1.12%; that for `CCOc1ccc(Nc2sc(C(=O)c3cccc(OC)c3)c(N)c2S(=O)(=O)c2ccccc2)cc1`, inactive: -0.568%; that for `Cn1c(=O)c(=O)n(C)c2cc(S(=O)(=O)N3CCCC3C(=O)Nc3ccc(F)cc3)ccc21` (stereo not given), inactive: -5.32%.
As to `COc1ccc(S(=O)(=O)N(CC(=O)NCCSCc2ccccc2)c2ccc(C)cc2)cc1`, the “activity change, negative = inhibition” value is inactive: -23.7%.
Same read-out and setting: to `CCOc1ccc(CNC(=O)Cn2ccc3cc(S(=O)(=O)N4CCCCC4)ccc32)cc1` belongs inactive: -1.75%; to `COc1ccc(S(=O)(=O)N(Cc2nc(-c3ccc(Cl)cc3)no2)C2CCCCC2)cc1`, inactive: -5.34%; to `Cc1ccc(S(=O)(=O)NCc2ccc(C(=O)NCCc3cccc(C)c3)cc2)cc1`, inactive: -13.3%.
The same measure, in the same setting: the result for `Cc1ccc(Cn2c(=O)n(-c3cc(C)cc(C)c3)c(=O)c3oc4ccccc4c32)cc1` reads inactive: 1.39%; that for `O=C(c1ccccc1Br)N1CCC(c2nc3ccccc3o2)CC1`, inactive: 1.85%.
Same read-out and setting: to `O=S(=O)(c1ccc(-n2cnnn2)cc1)N1CCN(c2cccc(C(F)(F)F)c2)CC1` belongs inactive: 3.18%; to `Cc1oc(C)c2c(=O)cc(-c3ccc4c(c3)OCO4)cc(OC(=O)c3cccc(Cl)c3)c12`, inactive: -0.0592%.
For the compound `COc1ccccc1NC(=O)C(Cc1ccccc1)NS(=O)(=O)c1cccc2nsnc12` (stereo not given), the “activity change, negative = inhibition” value is inactive: 0.3%.
On to `COc1cc(Cl)c(C)cc1NC(=O)c1sc2nc(C)cc(C)c2c1N`, for which the “activity change, negative = inhibition” value is inactive: 0.592%.
Still for that read-out and setting: the result for `Cc1ccsc1CN(C(=O)COc1cccc(C)c1C)C1CCS(=O)(=O)C1` (stereo not given) reads inactive: 1.98%; that for `COc1cc(C(=O)N(Cc2cccnc2)c2nc3cc(C)c(C)cc3s2)cc(OC)c1OC`, inactive: -10.8%; that for `CN1C(=O)C(C)(C)c2cc(S(=O)(=O)N3CCCC3C(=O)Nc3ccc(F)cc3)ccc21` (stereo not given), inactive: 4.59%.
